# Results as given in PubChem BioAssay AID504444 (National Center for Advancing Translational Sciences (NCATS), 2011).
# In all, about 360,000 compounds went through this assay and about 7,500 (2.1%) were called active. About 20% were inconclusive and are not listed. The call rests on the fitted dose curve; in most records, active means well fitted inhibition curve with a large enough effect; inconclusive means small, poorly fitted or top-dose-only effect, or effect the other way; inactive means flat fitted curve, though single readings scatter. This is a selection; strong and weak results do not stand in their true shares.
# Assay: Nrf2 qHTS screen for inhibitors; further: nearly all actives have a fitted effect of over 60% in size
# Conditions: A549 ARE-Fluc reporter, luciferase luminescence, 18-24 h; series mostly up to 46 µM; activity change, negative = inhibition: at the top concentration
# Text: NIH Molecular Libraries Probe Production Network [MLPCN]
# NIH Chemical Genomics Center [NCGC]
# Assay Provider: Shyam Biswal, Johns Hopkins University
# Nrf2 is a transcription factor that maintains cellular redox homoestasis and protects cells from xenobiotics. Nrf2 binds to the antioxidant response element (ARE) to induce gene expression of a broad spectrum of genes that encode for antioxidants. […] Finding a small molecule that act as an inhibitor of Nrf2 function would represent a novel therapeutic target that could lead to improvement in survival of patients undergoing chemo- and/or radio- therapy.
# This is the Nrf2 activity measured in the luminescent read.
# 1. Shibata, T., et al., Genetic Alteration of Keap1 Confers Constitutive Nrf2 Activation and Resistance to Chemotherapy in Gallbladder Cancer. Gastroenterology, 2008.
# 2. Sjoblom, T., et al., The consensus coding sequences of human breast and colorectal cancers. Science, 2006. 314(5797): p. 268-74.
# NCGC Assay Protocol Summary:
# A concentration-response assay was performed with A549 ARE_Fluc cells which are suspended in 5% FBS OPTI-MEM. Five uL were dispensed into 1536-well white TC-treated plate using the Kalypsys dispenser to achieve a density of 5000 cells/well in all columns except column 1. The plate is incubated at 37deg C at 5% CO2 for 2 hours before 23 nL of compounds are added with the Kalypsys pin tool equipped with a 1,536-pin array containing 10-nL slotted pins (FP1S10, 0.457-mm diameter, 50.8 mm long; V&P Scientific). The control compounds Budesonide and Staurosporine are both added at a concentration of 2mM and Budesonide is also added as a 1:10 titration, starting at 200uM, to achieve dose-response. After an 18-24 hour incubation at 37deg C at 5% CO2, 5ul of medium is added to column 1. Afterwards 1ul of 5x of CellTiter-Fluor (Promega) is added to every well. The plate is then incubated at 37deg C at 5% CO2 for 30 minutes before they are read on the ViewLux (Perkin Elmer) for a fluorescent read Ex=405(10)/Em=525(10) for a 3 second exposure, 2x binning, and high gain. Then 3 uL of 3x BugLite is dispensed into all wells and the plate is incubated at ambient room temperature for 15 minutes. Afterwards another ViewLux read is performed using the clear filter to get a luminescent read with the settings of 40 second exposure, 2x binning, and high gain. Cytotoxicity is assessed through the first fluorescent read and then biochemical activity against Nrf2 is measured in the luminescent read.
# On the % scale 0 is the no-effect control and ±100 the full control effect; potency means the concentration at half of the fitted maximal effect.
SMILES,"activity change, negative = inhibition",Potency
C=CC[C@H](CC(=O)N(CCO)Cc1ccccc1)C(=O)NCCOC(=O)[C@@H](CC=C)Cc1ccc(F)cc1,inactive: -26.5%,
C[C@@H]1CC[C@@]2(O[C@@H](CCO)C[C@H](O)[C@H]2O)O1,inactive: 15.5%,
Nc1nc2nc(-c3ccccc3)cc(=O)n2[nH]1,inactive: -17.3%,
O=S(=O)(c1c(F)cccc1F)N1CCN(S(=O)(=O)c2c(F)cccc2F)CC1,inactive: -17.7%,
COc1ccc(C(C)=O)cc1CSc1nnc(Nc2ccccc2)s1,,active: 23.1 µM
COc1ccccc1Nc1nc(N2CCOCC2)nc(N2CCOCC2)n1,inactive: 1.15%,
C[C@@H]1CC[C@]2(O[C@H](CCO)C[C@@H](O)[C@@H]2O)O1,inactive: 13.3%,
CC(=O)c1ccc(OCCNS(=O)(=O)c2ccc(-n3cnnn3)c(C)c2)cc1,,active: 5.8 µM
COC(C[C@H]1O[C@H]1[C@H](O)[C@H](C)OCc1ccccc1)OC,inactive: 14.8%,
O=C(O)CC(=O)NC12CC3CC(CC(C3)C1)C2,inactive: -11.4%,
Cc1cc(C)cc(NC(=O)C(=O)NCCCN2CCOCC2)c1,inactive: -0.538%,
COc1ccc(/C=C/c2cc(C(=O)O)c3ccccc3n2)cc1,,active: 6.51 µM
Cc1cc(C)cc(NC(=O)Cn2nnc(C(=O)NCc3ccccc3Cl)c2N)c1,inactive: -12.8%,
Cn1cccc/c1=N\c1cccc[n+]1C,,active: 2.91 µM
Cc1nc2c3ccccc3nc(NNC(=O)CCC(=O)N3CCN(c4ccc(F)cc4)CC3)n2n1,inactive: 5.64%,
CCN(CCCNC(=O)Cn1ncc2c([nH]c3ccc(C)cc32)c1=O)c1ccccc1,inactive: 12.4%,
CCCN1C(=O)S/C(=C\c2ccc(N3CCOCC3)o2)C1=O,inactive: 7.39%,
Cc1ccc(CNc2nc3ccccc3n3cnnc23)cc1,inactive: -12.6%,
CCC1CCC2(C1)N=C(Nc1nc3ccccc3o1)NC1=C2C(=O)CCC1 (stereo unspecified),,inactive
Cc1cccc(N2CCN(C(=O)C(C)n3nc(C)n4c(cc5occc54)c3=O)CC2)c1C (stereo unspecified),inactive: -4.78%,
C=CC[C@H](CC(=O)N[C@H](CO)Cc1ccccc1)C(=O)N[C@H](COC(=O)[C@@H](CC=C)Cc1ccc(F)cc1)Cc1c[nH]c2ccccc12,inactive: 0.241%,
C[C@H]1CC[C@]2(O[C@H](CCO)C[C@H](O)[C@H]2O)O1,inactive: 2.56%,
Cc1cc(/C=C2\SC(=O)NC2=O)c(C)n1-c1ccc(N2CCOCC2)cc1,inactive: 17.5%,

SMILES,"activity change, negative = inhibition",Potency
Cc1ccc(N2CCN(S(=O)(=O)c3nnc(NC(=O)c4ccccc4)s3)CC2)cc1,inactive: 6.34%,
Cc1ccc(OCCCCn2cnc3ccccc32)cc1,inactive: 4.28%,
N#Cc1nc(N)nc(N(c2ccccc2)c2ccccc2)n1,inactive: -25.5%,
C=CC[C@@H](CC(=O)N[C@H](CO)Cc1ccccc1)C(=O)N[C@H](COC(=O)[C@@H](CC=C)Cc1ccc(F)cc1)Cc1ccccc1,inactive: -11.8%,
Cc1ccc2oc(C(=O)N(Cc3ccc(N(C)C)cc3)CC3CCCO3)c(C)c2c1 (stereo unspecified),inactive: -4.63%,
Cc1ccccc1CC1(CO)CCCN(C(=O)c2cc(Cl)ccc2F)C1 (stereo unspecified),,active: 11.6 µM
Cc1ccc(SCCN2CCN(CC(C)C)CCC2=O)cc1,inactive: 7.69%,
Cc1cccc2sc(NNC(=O)c3cc(-c4cccs4)nc4ccccc34)nc12,,active: 23.1 µM
Cc1ccc(C(=O)Nc2nnc(S(=O)(=O)N3CCCCCC3)s2)cc1,inactive: 12.9%,
C=CC[C@@H](CC(=O)N[C@H](CO)Cc1ccccc1)C(=O)NC[C@@H](OC(=O)[C@@H](CC=C)Cc1ccc(F)cc1)c1ccccc1,inactive: 2.6%,
COc1ccccc1CN1CCC(CNS(=O)(=O)c2cc(-c3onc(C)c3C)ccc2OC)CC1,inactive: -8.44%,
COc1ccc(C2/C=C\CN(S(=O)(=O)c3ccc4ccccc4c3)CC(=O)N2Cc2ccc(F)cc2)cc1 (stereo unspecified),inactive: 14.6%,
Cc1ccc2ncc(S(=O)(=O)c3ccccc3)c(N3CCCCC3C)c2c1 (stereo unspecified),inactive: -26%,
O=C(CN1CCN(c2nc(-c3ccccc3)cs2)CC1)NCc1ccc2c(c1)OCO2,,active: 23.1 µM
O=C(NC(Nc1nc2ccc([N+](=O)[O-])cc2s1)(C(F)(F)F)C(F)(F)F)c1ccccc1Cl,,active: 1.84 µM
COc1cc(C(=O)O[C@H]2C/C(C)=C/CC[C@]3(C)O[C@@H]3C(O)C2C(C)C)cc(OC)c1OC (stereo partly specified),inactive: -24%,
CCN(CC)S(=O)(=O)c1ccc(NC(=O)Nc2cccc(C(F)(F)F)c2)cc1,,active: 20.6 µM
CCC1CCCCN1CCCNC(=O)CN1C(=O)c2cccnc2Oc2ccc(C)cc21 (stereo unspecified),inactive: 7.16%,
COc1ccccc1CNS(=O)(=O)c1ccc2c(c1)CC(=O)N2C,inactive: 17.9%,
N#CC(=C(O)COC(=O)Cc1c[nH]c2ccccc12)c1nc2ccccc2[nH]1,inactive: 6.49%,
Cc1nc2sccn2c(=O)c1S(=O)(=O)Nc1ccc(N2CCN(S(C)(=O)=O)CC2)cc1,inactive: 4.11%,
COc1ccc2cc3c(N)nn(C(=O)c4ccc(F)cc4)c3nc2c1,,active: 5.8 µM
CCN1CCSc2ccc(C(=O)NCc3cccc(F)c3)cc21,inactive: -4.77%,

SMILES,"activity change, negative = inhibition",Potency
O=C(NCc1ccccc1)C1=C[C@H](C2CCCCC2)C[C@H](OCc2ccc(CO)cc2)O1,inactive: -19.4%,
O=C(C[C@H]1C/C=C\CC[C@H](Cc2ccc(F)cc2)C(=O)OC[C@H]2CCCN2C1=O)N[C@H](CO)Cc1ccccc1,inactive: 12.3%,
C=CCn1c(C)cc(C2=NNC(=NCC)SC2)c1C,,active: 16.4 µM
C=CCC[C@H](Cc1ccc(F)cc1)C(=O)OC[C@H](Cc1c[nH]c2ccccc12)NC(=O)[C@H](CC=C)CC(=O)N[C@H](CO)Cc1ccccc1,inactive: 8.53%,
COc1ccc(/C=C(/NC(=O)c2cccs2)C(=O)Nc2ccc(C)cc2)cc1OC,inactive: -10.6%,
CC1CC(C)C[N+](=C2C=C(N3CCCC3)CC(C)(C)C2)C1 (stereo unspecified),,active: 5.17 µM
O=[N+]([O-])c1ccc(SCCc2ccncc2)cc1,inactive: -6.6%,
O=C(COCc1cc(-c2ccc3c(c2)OCO3)on1)N1CCN(c2cccc(Cl)c2)CC1,inactive: -4.04%,
O=C(NCc1ccccc1Cl)C1CCCN(S(=O)(=O)c2cccc3nsnc23)C1 (stereo unspecified),inactive: -47%,
Cc1cccc(OCC(=O)Nc2c(C(=O)N3CCN(c4ccccc4F)CC3)oc3ccccc23)c1,,active: 18.4 µM
CCc1nonc1NC(=O)c1oc2ccc(C)cc2c1C,inactive: 1.46%,
CCO[C@H]1OC(C(=O)NCc2ccccc2)=C[C@@H](c2ccc(C(F)(F)F)cc2)[C@@H]1CCCO,inactive: -5.95%,
CC(C)(C)c1ccc(C(=O)N/C(=C/c2cccs2)C(=O)NCc2ccco2)cc1,inactive: 8.14%,
Cc1ccc(N(C)S(=O)(=O)c2nnc(NC(=O)c3ccco3)s2)cc1,inactive: 13.3%,
COc1ccccc1C(=O)Nc1ccc(S(=O)(=O)N2CCC(C)CC2)cc1,,active: 23.1 µM
N#CC1=C2SCN(c3ccccc3)CN2C(=O)CC1c1ccccc1Cl (stereo unspecified),inactive: 26.3%,
C=CC[C@H](CC(=O)NCCO)C(=O)N[C@@H](COC(=O)[C@@H](CC=C)Cc1ccc(F)cc1)Cc1ccccc1,inactive: -3.83%,
C[C@@H]1CCC[C@@]2(O[C@@H](CCO)C[C@H](O)[C@H]2O)O1,inactive: -7.38%,
C=CC[C@H](CC(=O)N[C@H](CO)Cc1ccccc1)C(=O)N[C@H](COC(=O)[C@@H](CC=C)CC(=O)OC(C)(C)C)Cc1c[nH]c2ccccc12,inactive: -1.52%,
N#Cc1nc(NCC(F)F)nc(Nc2cc(F)cc(F)c2)n1,inactive: 9.43%,
O=C(c1ccc2ccccc2c1)C1CCCN(S(=O)(=O)c2cccnc2)C1 (stereo unspecified),,active: 20.6 µM
CC(=O)N1CCc2cc(S(=O)(=O)CCC(=O)N3CCN(c4ccccc4F)CC3)ccc21,inactive: 12.3%,
CCCCCC/C=C/c1ccc(OC)c(C2C3C=CCC(C)C3C(=O)N2Cc2ccccc2)c1 (stereo unspecified),inactive: 9.24%,

SMILES,"activity change, negative = inhibition",Potency
CCOC(=O)C1CCN(S(=O)(=O)c2csc(C(N)=O)c2)CC1,inactive: 2.58%,
Cc1cc(NC(=O)c2cccc(S(=O)(=O)N(C)C)c2)n(-c2ccccn2)n1,,active: 25.9 µM
Cc1nc2cccnc2n1-c1cccc(C(=O)N2CCN(c3ccc(Cl)cc3)CC2)c1,,active: 18.4 µM
CCN(CCCNC(=O)Cn1ncc2c([nH]c3ccc(C)cc32)c1=O)c1cccc(C)c1,inactive: 9.82%,
COc1cccc(NC(=O)CN2C(=O)c3cccnc3Oc3ccc(Cl)cc32)c1,inactive: -10.9%,
O=C(Nc1ccccc1)C1=C[C@@H](c2ccc(Br)cc2)C[C@@H](OCc2ccc(CO)cc2)O1,,active: 18.4 µM
Cc1ccc(N2C(=O)/C(=C/c3ccco3)SC2=S)cc1,inactive: 3.79%,
O=C1[C@H](Cc2ccccc2)NCCCC[C@@H](c2ccco2)N1Cc1ccccc1,inactive: 6.46%,
COc1ccccc1Nc1c2ccccc2nc2ccccc12,,active: 14.6 µM
Cc1cccc(N2CCN(C(=O)Cn3nc(C)n4cccc4c3=O)CC2C)c1 (stereo unspecified),inactive: -1.5%,
COc1ccc(CCNc2ccc(N3C(=O)CC(C)C3=O)cc2[N+](=O)[O-])cc1OC (stereo unspecified),,active: 14.6 µM
CCN(Cc1ccccc1)S(=O)(=O)c1ccc(C(=O)N(CCCN(C)C)c2nc3c(C)c(C)ccc3s2)cc1,,active: 18.4 µM
O=C(/C=C/c1ccccc1[N+](=O)[O-])c1ccccc1Br,,active: 16.4 µM
C=CCOC(=O)C1=C(C)NC(SCC)=C(C#N)C1c1ccc(Cl)cc1 (stereo unspecified),,active: 20.6 µM
C[C@H]1COc2c(N3CCN(C)CC3)c(F)cc3c(=O)c(C(=O)O)cn1c23,inactive: 1.79%,
CC1OC(CC(=O)O)CC2=C1C(=O)c1c(O)cccc1C2=O (stereo unspecified),,active: 20.6 µM
CCOC(=O)[C@@H]1[C@H]2COc3cc(OC)ccc3[C@@H]2N2C(=O)N(c3cccc(F)c3)C(=O)[C@@]12C,inactive: 12.7%,
CCNc1nc(NCc2ccccc2)nc(SCC(=O)Nc2ccccc2)n1,,active: 23.1 µM
COc1ccc(C)cc1NS(=O)(=O)c1ccc2c(c1)n(C)c(=O)n2C,inactive: -8.91%,
Cc1ccnn1CC(=O)N/N=C/c1ccc([N+](=O)[O-])s1,,active: 25.9 µM
CCCN1C(=O)C(Cc2nc3ccccc3c(=O)n2-c2ccccc2)c2cc(C)ccc21 (stereo unspecified),inactive: -3.44%,
C[C@@H]1OC(Nc2ccc(N=Nc3ccccc3)cc2)[C@H](O)[C@H](O)[C@H]1O (stereo partly specified),inactive: 0.843%,
